# Reference: the supplement of paper PMC8728848
# The list shows a part of the results.
# B1: CV-IIL (Chromobacterium violaceum) (protein)
# chain: AQQGVFTLPARINFGVTVLVNSAATQHVEIFVDNEPRAAFSGVGTGDNNLGTKVINSGSGNVRVQITANGRQSDLVSSQLVLANKLNLAVVGSEDGTDMDYNDSIVILNWPLG
# Tests used:
# Assay in all cases: glycan array binding signal (z-score within array); higher = stronger binding
# Settings in all cases: glycan notation: IUPAC condensed, linker removed
# [1] = molecular target: Man(a1-3)[Man(a1-6)]Man(a1-6)[Man(a1-2)Man(a1-3)]Man(b1-4)GlcNAc(b1-4)GlcNAc
# Method in brief: (§1)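 The Consortium for Functional Glycomics database supplied 3228 glycan arrays, of which those lacking an available protein sequence were dropped. The binding signal, a within-array Z-score, was averaged across arrays of the same protein sequence and across linkers. Negative scores can be read as non-binding.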
# [2] = molecular target: Man(a1-3)[Man(a1-6)]Man(a1-6)[Man(a1-3)]Man(b1-4)GlcNAc(b1-4)GlcNAc
# Method in brief: as §1
# [3] = molecular target: Man(a1-3)[Man(a1-6)]Man(b1-4)GlcNAc(b1-4)GlcNAc
# Method in brief: as §1
# Man(b1-4)GlcNAc = molecular target: Man(b1-4)GlcNAc
# Method in brief: as §1
# Neu5Ac(a2-3)Gal = molecular target: Neu5Ac(a2-3)Gal
# Method in brief: as §1
# [4] = molecular target: Neu5Ac(a2-3)Gal(b1-3)GalNAc
# Method in brief: as §1
# [5] = molecular target: Neu5Ac(a2-3)Gal(b1-3)GalNAc(b1-3)Gal(a1-4)Gal(b1-4)Glc
# Method in brief: as §1
# [6] = molecular target: Neu5Ac(a2-3)Gal(b1-3)GalNAc(b1-3)Gal(b1-4)GlcNAc
# Method in brief: as §1
# [7] = molecular target: Neu5Ac(a2-3)Gal(b1-3)GalNAc(b1-4)[Neu5Ac(a2-3)]Gal(b1-4)Glc
# Method in brief: as §1
# [8] = molecular target: Neu5Ac(a2-3)Gal(b1-3)GalNAc6S
# Method in brief: as §1
# [9] = molecular target: Neu5Ac(a2-3)Gal(b1-3)GlcNAc
# Method in brief: as §1
# [10] = molecular target: Neu5Ac(a2-3)Gal(b1-3)GlcNAc6S
# Method in brief: as §1
# [11] = molecular target: Neu5Ac(a2-3)Gal(b1-3)[Fuc(a1-4)]GlcNAc
# Method in brief: as §1
# [12] = molecular target: Neu5Ac(a2-3)Gal(b1-3)[Fuc(a1-4)]GlcNAc(b1-3)Gal(b1-4)[Fuc(a1-3)]GlcNAc
# Method in brief: as §1
# [13] = molecular target: Neu5Ac(a2-3)Gal(b1-3)[Neu5Ac(a2-3)Gal(b1-4)]GlcNAc
# Method in brief: as §1
# [14] = molecular target: Neu5Ac(a2-3)Gal(b1-3)[Neu5Ac(a2-6)]GalNAc
# Method in brief: as §1
# Neu5Ac(a2-3)Gal(b1-4)Glc = molecular target: Neu5Ac(a2-3)Gal(b1-4)Glc
# Method in brief: as §1
# [15] = molecular target: Neu5Ac(a2-3)Gal(b1-4)GlcNAc
# Method in brief: as §1
# [16] = molecular target: Neu5Ac(a2-3)Gal(b1-4)GlcNAc(b1-2)Man(a1-3)[Neu5Ac(a2-3)Gal(b1-4)GlcNAc(b1-2)Man(a1-6)]Man(b1-4)GlcNAc(b1-4)GlcNAc
# Method in brief: as §1
# [17] = molecular target: Neu5Ac(a2-3)Gal(b1-4)GlcNAc(b1-3)Gal(b1-4)GlcNAc
# Method in brief: as §1
# [18] = molecular target: Neu5Ac(a2-3)Gal(b1-4)GlcNAc(b1-3)Gal(b1-4)GlcNAc(b1-3)Gal(b1-4)GlcNAc
# Method in brief: as §1
# [19] = molecular target: Neu5Ac(a2-3)Gal(b1-4)GlcNAc(b1-3)Gal(b1-4)[Fuc(a1-3)]GlcNAc
# Method in brief: as §1
# [20] = molecular target: Neu5Ac(a2-3)Gal(b1-4)GlcNAc6S
# Method in brief: as §1
# [21] = molecular target: Neu5Ac(a2-3)Gal(b1-4)[Fuc(a1-3)]GlcNAc
# Method in brief: as §1
# [22] = molecular target: Neu5Ac(a2-3)Gal(b1-4)[Fuc(a1-3)]GlcNAc(b1-3)Gal
# Method in brief: as §1
# [23] = molecular target: Neu5Ac(a2-3)Gal(b1-4)[Fuc(a1-3)]GlcNAc(b1-3)Gal(b1-4)GlcNAc
# Method in brief: as §1
# [24] = molecular target: Neu5Ac(a2-3)Gal(b1-4)[Fuc(a1-3)]GlcNAc(b1-3)Gal(b1-4)[Fuc(a1-3)]GlcNAc(b1-3)Gal(b1-4)[Fuc(a1-3)]GlcNAc
# Method in brief: as §1
# [25] = molecular target: Neu5Ac(a2-3)Gal(b1-4)[Fuc(a1-3)]GlcNAc6S
# Method in brief: as §1
# [26] = molecular target: Neu5Ac(a2-3)Gal6S(b1-4)GlcNAc
# Method in brief: as §1
# [27] = molecular target: Neu5Ac(a2-3)Gal6S(b1-4)[Fuc(a1-3)]GlcNAc
# Method in brief: as §1
# Neu5Ac(a2-3)GalNAc = molecular target: Neu5Ac(a2-3)GalNAc
# Method in brief: as §1
# [28] = molecular target: Neu5Ac(a2-3)GalNAc(b1-4)GlcNAc
# Method in brief: as §1
# [29] = molecular target: Neu5Ac(a2-3)[GalNAc(b1-4)]Gal(b1-4)Glc
# Method in brief: as §1
# [30] = molecular target: Neu5Ac(a2-3)[GalNAc(b1-4)]Gal(b1-4)GlcNAc
# Method in brief: as §1
# [31] = molecular target: Neu5Ac(a2-3)[Neu5Ac(a2-6)]GalNAc
# Method in brief: as §1
# Neu5Ac(a2-6)Gal = molecular target: Neu5Ac(a2-6)Gal
# Method in brief: as §1
# Neu5Ac(a2-6)Gal(b1-4)Glc = molecular target: Neu5Ac(a2-6)Gal(b1-4)Glc
# Method in brief: as §1
# [32] = molecular target: Neu5Ac(a2-6)Gal(b1-4)GlcNAc
# Method in brief: as §1
# [33] = molecular target: Neu5Ac(a2-6)Gal(b1-4)GlcNAc(b1-3)Gal(b1-4)GlcNAc
# Method in brief: as §1
# [34] = molecular target: Neu5Ac(a2-6)Gal(b1-4)GlcNAc(b1-3)Gal(b1-4)[Fuc(a1-3)]GlcNAc(b1-3)Gal(b1-4)[Fuc(a1-3)]GlcNAc
# Method in brief: as §1
# [35] = molecular target: Neu5Ac(a2-6)Gal(b1-4)GlcNAc6S
# Method in brief: as §1
# Neu5Ac(a2-6)GalNAc = molecular target: Neu5Ac(a2-6)GalNAc
# Method in brief: as §1
# [36] = molecular target: Neu5Ac(a2-6)GalNAc(b1-4)GlcNAc
# Method in brief: as §1
# Neu5Ac(a2-8)Neu5Ac = molecular target: Neu5Ac(a2-8)Neu5Ac
# Method in brief: as §1
# [37] = molecular target: Neu5Ac(a2-8)Neu5Ac(a2-3)Gal(b1-4)Glc
# Method in brief: as §1
binder,measurement,setting,value
B1,glycan array binding signal (z-score),[1],2.43
same,glycan array binding signal (z-score),[2],1.88
same,glycan array binding signal (z-score),[3],2.82
same,glycan array binding signal (z-score),Man(b1-4)GlcNAc,-0.494
same,glycan array binding signal (z-score),Neu5Ac(a2-3)Gal,-0.502
same,glycan array binding signal (z-score),[4],-0.502
same,glycan array binding signal (z-score),[5],-0.499
same,glycan array binding signal (z-score),[6],-0.5
same,glycan array binding signal (z-score),[7],-0.501
same,glycan array binding signal (z-score),[8],-0.502
same,glycan array binding signal (z-score),[9],-0.5
same,glycan array binding signal (z-score),[10],-0.5
same,glycan array binding signal (z-score),[11],1.92
same,glycan array binding signal (z-score),[12],0.938
same,glycan array binding signal (z-score),[13],-0.502
same,glycan array binding signal (z-score),[14],-0.502
same,glycan array binding signal (z-score),Neu5Ac(a2-3)Gal(b1-4)Glc,-0.499
same,glycan array binding signal (z-score),[15],-0.502
same,glycan array binding signal (z-score),[16],-0.492
same,glycan array binding signal (z-score),[17],-0.498
same,glycan array binding signal (z-score),[18],-0.502
same,glycan array binding signal (z-score),[19],-0.502
same,glycan array binding signal (z-score),[20],-0.502
same,glycan array binding signal (z-score),[21],-0.305
same,glycan array binding signal (z-score),[22],-0.237
same,glycan array binding signal (z-score),[23],-0.296
same,glycan array binding signal (z-score),[24],-0.078
same,glycan array binding signal (z-score),[25],-0.275
same,glycan array binding signal (z-score),[26],-0.402
same,glycan array binding signal (z-score),[27],-0.387
same,glycan array binding signal (z-score),Neu5Ac(a2-3)GalNAc,-0.502
same,glycan array binding signal (z-score),[28],-0.501
same,glycan array binding signal (z-score),[29],-0.501
same,glycan array binding signal (z-score),[30],-0.5
same,glycan array binding signal (z-score),[31],-0.501
same,glycan array binding signal (z-score),Neu5Ac(a2-6)Gal,-0.501
same,glycan array binding signal (z-score),Neu5Ac(a2-6)Gal(b1-4)Glc,-0.497
same,glycan array binding signal (z-score),[32],-0.502
same,glycan array binding signal (z-score),[33],-0.502
same,glycan array binding signal (z-score),[34],-0.107
same,glycan array binding signal (z-score),[35],-0.501
same,glycan array binding signal (z-score),Neu5Ac(a2-6)GalNAc,-0.501
same,glycan array binding signal (z-score),[36],-0.502
same,glycan array binding signal (z-score),Neu5Ac(a2-8)Neu5Ac,-0.511
same,glycan array binding signal (z-score),[37],-0.501
